The source of these data is the supplement of paper PMC4604168 (melanoma cell lines).

The other results are listed elsewhere or left out. Many values rest on one well or one pass, so single values are uncertain.

Test systems include MZ2-MEL; MeWo; RPMI7951; RVH-421; SkMel28; SkMel2; SkMel30; SkMel5; UACC257; UACC62.
Test in all cases: cell count relative to DMSO control; melanoma cells; higher = more viable cells
Conditions in all cases: library dose: low library concentration; 72 h
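Also: cell number obtained by counting DAPI-stained nuclei in high-throughput microscope images with image analysis software, screen run in 1,536-well plates.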

For the molecule `C[C@@H](Oc1cc(-c2cnn(C3CCNCC3)c2)cnc1N)c1c(Cl)ccc(F)c1Cl` [Crizotinib] + O=C(CCCCCCC(=O)Nc1ccccc1)NO [vorinostat] (first compound 0.2 µM, partner dose 0.08 µM), the cell count was determined as 104% in the assay with MZ2-MEL; 104% in the assay with MeWo; 109% in the assay on RPMI7951; 97.9% with RVH-421; 92.4% with SkMel28; 112% in the assay on SkMel2. The cell count in the assay on SkMel30 was 103%; in the assay on SkMel5, 97.1%; in the assay with UACC257 it was 87.4%; with UACC62, 89%.
As to `C=CCNC1=C2C[C@@H](C)C[C@H](OC)[C@H](O)[C@@H](C)/C=C(\C)[C@H](OC(N)=O)[C@@H](OC)/C=C\C=C(/C)C(=O)NC(=CC1=O)C2=O` [Tanespimycin] + Oc1cc(-c2nc(-c3ccccc3)[nH]c2-c2ccncc2)ccc1Cl [L779450] (first compound 0.002 µM, partner dose 0.2 µM), the cell count was found to be 85% with MZ2-MEL; 99.1% with MeWo; 88.6% with RPMI7951; 77% in the assay on RVH-421; 88.2% with SkMel28; 102% in the assay with SkMel2. Moreover, the cell count in the assay on SkMel30 is 96.2%; in the assay with SkMel5, 102%; with UACC257, 102%; in the assay with UACC62, 85.4%.
In the case of `CS(=O)(=O)CCNCc1ccc(-c2ccc3ncnc(Nc4ccc(OCc5cccc(F)c5)c(Cl)c4)c3c2)o1` [lapatinib] + COc1ccc(-c2ccc3c(N4CCOCC4)nc(N4C[C@@H](C)O[C@@H](C)C4)nc3n2)cc1CO [KU0063794] (first compound 0.8 µM, partner dose 0.02 µM), the cell count in the assay with MZ2-MEL is 90%; with MeWo, 101%; with RPMI7951, 98.9%; in the assay on RVH-421 it was 130%; in the assay on SkMel28, 95.7%; with SkMel2, 101%. The cell count in the assay with SkMel30 amounted to 105%; in the assay on SkMel5, 114%; with UACC257, 81.1%; in the assay on UACC62 it was 98.1%.
`CN1CCN(c2ccc3nc(-c4c(N)c5c(F)cccc5[nH]c4=O)[nH]c3c2)CC1` [Dovitinib] + Cc1ccc(NC(=O)c2cccc(N(C)C)c2)cc1NC(=O)c1ccc(O)cc1 [ZM336372] (first compound 0.1 µM, partner dose 2 µM): the cell count in the assay on MZ2-MEL is 62.5%; with MeWo, 92.8%; in the assay on RPMI7951, 93.9%; in the assay on RVH-421 it was 117%; in the assay with SkMel28 it was 94%; in the assay on SkMel2, 107%. In addition, the cell count was determined as 54.3% with SkMel30, 85.8% in the assay on SkMel5, 92.7% in the assay on UACC257 and 88.4% with UACC62.
On to `C=CCNC1=C2C[C@@H](C)C[C@H](OC)[C@H](O)[C@@H](C)/C=C(\C)[C@H](OC(N)=O)[C@@H](OC)/C=C\C=C(/C)C(=O)NC(=CC1=O)C2=O` [Tanespimycin] + COc1ccc2c(c1)CCC1C2CCC2(C)C(NCCCCCCN3C(=O)C=CC3=O)CCC12 [U73122] (first compound 0.002 µM, partner dose 0.4 µM), for which the cell count with MZ2-MEL came to 97%; with MeWo, 97.9%; with RPMI7951, 80.4%; in the assay with RVH-421 it was 112%; with SkMel28 it was 95.5%; in the assay with SkMel2 it was 92.8%. Besides, the cell count in the assay with SkMel30 turned out to be 94.9%; with SkMel5, 92.7%; with UACC257, 103%; with UACC62 it was 95.2%.
On to `C[C@@H](Oc1cc(-c2cnn(C3CCNCC3)c2)cnc1N)c1c(Cl)ccc(F)c1Cl` [Crizotinib] + COc1ccc(-c2ccc3c(N4CCOCC4)nc(N4C[C@@H](C)O[C@@H](C)C4)nc3n2)cc1CO [KU0063794] (first compound 0.2 µM, partner dose 0.02 µM), for which the cell count is 98.7% in the assay with MZ2-MEL; 90.3% in the assay on MeWo; 107% with RPMI7951; 76.8% in the assay with RVH-421; 80.3% in the assay with SkMel28; 100% in the assay with SkMel2. Also, the cell count in the assay with SkMel30 worked out at 93.5%; in the assay on SkMel5, 82.9%; in the assay with UACC257, 79.8%; in the assay with UACC62 it was 86.2%.
As for `CS(=O)(=O)CCNCc1ccc(-c2ccc3ncnc(Nc4ccc(OCc5cccc(F)c5)c(Cl)c4)c3c2)o1` [lapatinib] + NC(=O)Nc1cc(-c2cccc(F)c2)sc1C(=O)N[C@H]1CCCNC1 [AZD7762] (first compound 0.8 µM, partner dose 0.02 µM), the cell count in the assay with MZ2-MEL was 106%; in the assay on MeWo, 104%; with RPMI7951, 96.7%; in the assay on RVH-421, 121%; with SkMel28 it was 98.4%; with SkMel2, 110%. Moreover, the cell count turned out to be 82.4% with SkMel30, 113% in the assay on SkMel5, 119% in the assay on UACC257 and 96.9% with UACC62.
As to `CS(=O)(=O)CCNCc1ccc(-c2ccc3ncnc(Nc4ccc(OCc5cccc(F)c5)c(Cl)c4)c3c2)o1` [lapatinib] + C[C@@H]1CCN(C(=O)CC#N)C[C@@H]1N(C)c1ncnc2[nH]ccc12 [CP690550] (first compound 0.8 µM, partner dose 1 µM), the cell count with MZ2-MEL worked out at 98.8%; with MeWo it was 97.4%; in the assay on RPMI7951 it was 96.3%; in the assay on RVH-421, 97%; in the assay on SkMel28 it was 105%; in the assay with SkMel2 it was 98.6%. Besides, the cell count amounted to 104% in the assay on SkMel30, 98% with SkMel5, 101% in the assay on UACC257 and 113% in the assay on UACC62.
In the case of `C[C@@H](Oc1cc(-c2cnn(C3CCNCC3)c2)cnc1N)c1c(Cl)ccc(F)c1Cl` [Crizotinib] + Oc1nc(-c2ccc(C(F)(F)F)cc2)nc2c1CSCC2 [XAV939] (first compound 0.2 µM, partner dose 2 µM), the cell count in the assay with MZ2-MEL came to 95.1%; with MeWo, 100%; in the assay with RPMI7951 it was 110%; in the assay on RVH-421 it was 87.7%; with SkMel28, 106%; in the assay on SkMel2 it was 91.7%. Further, the cell count is 102% with SkMel30, 86.7% in the assay on SkMel5, 79.6% with UACC257 and 94.1% with UACC62.
Regarding `CS(=O)(=O)CCNCc1ccc(-c2ccc3ncnc(Nc4ccc(OCc5cccc(F)c5)c(Cl)c4)c3c2)o1` [lapatinib] + COc1cc(N2CCC(N3CCN(C)CC3)CC2)ccc1Nc1ncc(Cl)c(Nc2ccccc2S(=O)(=O)C(C)C)n1 [NVP-TAE684] (first compound 0.8 µM, partner dose 0.08 µM), the cell count in the assay with MZ2-MEL amounted to 94.2%; in the assay with MeWo it was 89.5%; with RPMI7951 it was 86%; in the assay on RVH-421, 84.2%; in the assay on SkMel28, 89.4%; in the assay with SkMel2 it was 83.5%. Moreover, the cell count turned out to be 100% in the assay on SkMel30, 82.9% with SkMel5, 58.8% with UACC257 and 81.9% with UACC62.
